From PubChem BioAssay AID485367 (National Center for Advancing Translational Sciences (NCATS), 2010)
“And” between values parts separate entries of the source, which are not always exact repeats. Equal entries are not always repeated. Hit rate of the full screen: of about 330,000 compounds, about 560 (0.17%) were called active. This list was built around the results that the source calls inconclusive (neither active nor inactive); the mix of calls is not that of the screen. Calls follow the shape of the dose curve; as a rule, active = well fitted inhibition curve with a large enough effect; inconclusive = small, poorly fitted or top-dose-only effect, or effect the other way; inactive = flat fitted curve, though single readings scatter. Potencies of inconclusive entries are left out as doubtful fits.

biological target: ATP-dependent 6-phosphofructokinase (Trypanosoma brucei brucei) (UniProt O15648); assay: qHTS Assay to Find Inhibitors of T. brucei phosphofructokinase; also: nearly all actives have a fitted effect of over 60% in size;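 as to activity, negative = inhibition: 0% = uninhibited 1x PFK enzyme wells and -100% = no-enzyme wells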; conditions: T. brucei PFK, ADP-Glo luminescence; activity, negative = inhibition: at 57.5 µM (top of the series)
Procedure, shortened: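 Luminescent ADP detection (ADP-Glo, two-step: ATP depletion then ADP-to-ATP conversion for luciferase) reported PFK activity after 45 min room-temperature reaction of 1.25 nM enzyme with 0.5 mM F6P and 0.1 mM ATP at pH 8.0.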
Potency is read from the fitted curve at half-maximal effect; tags tell the direction and shape of the fitted curve.

Chain of UniProt O15648 (O15648 whole entry, looked up): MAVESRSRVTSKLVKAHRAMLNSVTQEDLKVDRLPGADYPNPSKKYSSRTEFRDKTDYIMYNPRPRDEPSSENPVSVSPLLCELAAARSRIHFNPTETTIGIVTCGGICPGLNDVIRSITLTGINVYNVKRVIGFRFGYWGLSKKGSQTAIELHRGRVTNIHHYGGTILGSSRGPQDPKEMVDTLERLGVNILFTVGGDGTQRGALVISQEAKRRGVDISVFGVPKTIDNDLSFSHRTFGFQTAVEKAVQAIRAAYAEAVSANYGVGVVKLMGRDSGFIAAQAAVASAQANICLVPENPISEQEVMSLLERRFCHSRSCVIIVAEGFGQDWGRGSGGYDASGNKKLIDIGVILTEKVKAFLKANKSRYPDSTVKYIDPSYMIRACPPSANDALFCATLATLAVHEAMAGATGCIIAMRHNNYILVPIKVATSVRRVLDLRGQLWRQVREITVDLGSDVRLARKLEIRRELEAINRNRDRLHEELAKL

Row | SMILES | Potency | activity, negative = inhibition
1 | Cc1cccc(C(=O)N2CC3(C)CC2CC(C)(C)C3)c1 (centres undefined) | inconclusive [falling, single point] | 
2 | CCCCCCCCCCCCCCCCn1cc[n+](CC(C)=O)c1 | inconclusive [activator, full curve] | 
3 | Cc1cc(C(=O)COc2cccc3cccnc23)c(C)n1C | inconclusive [falling, single point] | 
4 | CCCC(NC(=O)Cc1c(C)c2c(cc(C)c3c(C)coc32)oc1=O)C(=O)O (centres undefined) |  | inactive: 5.03%
5 | CC(=O)c1cccc(NC(=O)c2cnn3ccccc23)c1 |  | inactive: -8.01%
6 | c1ccc2c(N3CCOCC3)nc(-c3ccncc3)nc2c1 |  | inactive: -4.15%
7 | COc1cc(C=NNC(=O)c2ccc(NS(=O)(=O)c3cccs3)cc2)cc(Br)c1O | inconclusive [activator, partial curve] | 
8 | Cc1ccccc1NC(=O)CN1C(=O)S/C(=C\c2ccc(-c3cc(C(=O)O)ccc3C)o2)C1=O |  | inactive: -19.1%
9 | O=C(CN1CCN(CC(=O)Nc2ccccc2F)CC1)Nc1cccc(F)c1 | inconclusive [activator, single point] | 
10 | Cc1ccc(S(=O)(=O)CCC(=O)c2cccc([N+](=O)[O-])c2)cc1 | active: 13.5 µM | 
11 | COc1ccc(S(=O)(=O)c2ccc(OC)cc2)cc1 |  | inactive: -2.74%
12 | CNC(=O)c1c(NC(=O)c2ccc(S(=O)(=O)N3CCCc4ccccc43)cc2)sc2c1CCN(C)C2 |  | inactive: 3.71%
13 | CCOCCCn1c(SCC(=O)NCc2ccco2)nc2c(sc3ccccc32)c1=O | inconclusive [falling, single point] | 
14 | CC(C)CNC(=O)c1cccc(NC(=O)c2ccc(Cl)c([N+](=O)[O-])c2)c1 | active: 23.9 µM | 
15 | CS(=O)(=O)Nc1ccc(C2=NN(C(=O)c3ccccc3)C(c3cccs3)C2)cc1 (centres undefined) | inconclusive [activator, single point] | 
16 | O=C(O)c1ccc(N/N=C/c2cc3ccccc3nc2Cl)cc1 | inconclusive [activator, single point] | 
17 | CC(C)CN1C(=S)SC(C)(C)C1n1oc(=O)n(-c2ccc(Cl)cc2)c1=O (centres undefined) | active: 26.9 µM | 
18 | CCN1CCN(C(=O)C(C)Sc2nc3nc(C)cc(C)n3n2)CC1 (centres undefined) | inconclusive [falling, full curve, poor fit] | 
19 | O=C1N/C(=N\S(=O)(=O)Cc2ccccc2)S/C1=C/c1cc([N+](=O)[O-])ccc1O | inconclusive [activator, single point] | 
20 | COc1ccc(COCC(O)CN(Cc2ccco2)Cc2ccccc2O)cc1 (centres undefined) | inconclusive [activator, single point] | 
21 | CC(C)N(Cc1ccccc1)C(=O)CCS(=O)(=O)c1ccc2c(c1)oc(=O)n2C |  | inactive: -8.16%
22 | CC(=O)NC(CC(=O)OCC(=O)c1ccc(NC(=O)CC(C)C)cc1)c1ccccc1 (centres undefined) | inconclusive [falling, single point] | 
23 | CC1CCN(S(=O)(=O)c2ccc3c(c2)CCC(=O)N3CC(=O)Nc2cccc(C#N)c2)CC1 | active: 9.53 µM | 
24 | COc1ccc(C(=O)COC(=O)Cn2c(C)csc2=O)c(OC)c1 | inconclusive [falling, single point] | 
25 | O=C(c1ccccc1)N(C(=O)c1ccccc1)c1ncnc2c1C(c1ccccc1)c1c(ccc3ccccc13)O2 (centres undefined) | inconclusive [falling, single point] | 

Row | SMILES | Potency | activity, negative = inhibition
26 | COc1cccc(NC(=O)NCC2CCN(Cc3ccc(F)cc3)CC2)c1 | inconclusive [falling, partial curve] | 
27 | O=c1c(O)c(-c2ccc(O)cc2O)oc2cc(O)cc(O)c12 | inconclusive [activator, single point] | 
28 | Cc1ccc(C(=O)N/C(=C\c2ccc3c(c2)OCO3)C(=O)Nc2ccc(C(=O)O)cc2)cc1 | inconclusive [activator, single point] | 
29 | CN1/C(=C/C(=O)c2nc(S(C)(=O)=O)ncc2Cl)C(C)(C)c2ccccc21 | inconclusive [falling, single point] | 
30 | COc1ccc(NC(=O)N2CCCC(CNS(=O)(=O)c3cccs3)C2)c(C)c1 (centres undefined) | inconclusive [activator, single point] | 
31 | Cc1ccccc1NCC(=O)N/N=C\c1ccc([N+](=O)[O-])s1 | inconclusive [falling, single point] | 
32 | Cc1cccc(NC(=O)c2cc(NC(=O)C3CCCCC3C(=O)O)ccc2N2CCCCC2)c1 (centres undefined) |  | inactive: -2.05%
33 | O=C(c1ccc(CS(=O)Cc2ccccc2Cl)o1)N1CCN(c2cccc(Cl)c2)CC1 (centres undefined) | inconclusive [falling, single point] | 
34 | CCSc1nnc(NC(=O)COc2ccc3ccccc3c2)s1 | inconclusive [activator, partial curve] | 
35 | Cc1cccc(C[C@H](C(=O)O)N2C(=O)c3ccc(C(=O)O)cc3C2=O)c1 |  | inactive: 6.85%
36 | CCn1c(-c2ccc(S(=O)(=O)N3CCOCC3)cc2)csc1=Nc1ccc(C)c(Cl)c1 |  | inactive: -12.7%
37 | Cc1cc(N)n(-c2ccc([N+](=O)[O-])cc2)n1 |  | inactive: 0.909%
38 | O=C(Nc1ccc(F)cc1F)N1CCCC(c2nc(-c3ccc(F)cc3)no2)C1 (centres undefined) |  | inactive: -1.08%
39 | Cc1cnn(Cc2cccnc2)c1N | inconclusive [falling, single point] | 
40 | O=c1c2ccccc2sn1-c1ccc(F)cc1 | active: 3.38 µM | 
41 | Oc1[nH]c(=S)sc1/C=C1\C(c2ccccc2)=Nc2ccccc21 |  | inactive: -0.0309%
42 | CC(C)[C@H](N)c1nnc2n1N=C(c1ccc(Cl)cc1)CS2 |  | inactive: -2.81%
43 | COc1ccc(Cc2nnc(NCCO)[nH]c2=O)cc1 |  | inactive: 0%
44 | Cc1cc(C)c(S(=O)(=O)N2CCN(C(=O)N(C)C)CC2)c(C)c1 | inconclusive [falling, partial curve] | 
45 | COc1ccccc1N1CCN(C2CCN(S(=O)(=O)c3ccc(NC(C)=O)cc3)CC2)CC1 |  | inactive: -4.64%
46 | Cc1cc(NC(=O)COc2ccc(F)c(Cl)c2)no1 | inconclusive [falling, single point] | 
47 | Cc1ccc(N2CCN(C(=S)c3ccc(-c4cccc([N+](=O)[O-])c4)o3)CC2)cc1 | inconclusive [falling, partial curve] | 
48 | COc1cc(/C=C2/C(=O)NN(c3ccc(Cl)c(Cl)c3)C2=O)cc([N+](=O)[O-])c1O | inconclusive [activator, single point] | 
49 | O=C(NCc1ccc(F)cc1)C(=O)NCC1CCCN1S(=O)(=O)c1ccccc1 (centres undefined) | inconclusive [falling, partial curve] | 
50 | CNc1c([N+](=O)[O-])ncn1C | inconclusive [falling, single point] | 

Row | SMILES | Potency | activity, negative = inhibition
51 | Cc1cc(NC(=O)c2cc([N+](=O)[O-])cc([N+](=O)[O-])c2)n(-c2ccccc2)n1 | inconclusive [falling, single point] | 
52 | Cc1cc[n+](-c2[nH]c(=O)sc2/C=N/N=C(\[O-])c2ccccc2)cc1 | inconclusive [falling, single point] | 
53 | O=C(OCc1ccc(Cl)c(Cl)c1)c1cnccn1 | inconclusive [falling, partial curve] | 
54 | Cc1nc(Nc2ccccc2)sc1C(=O)c1ccc(F)cc1 |  | inactive: 3%
55 | COc1ccccc1CCC(=O)OCC(=O)Nc1ccc2[nH]c(=O)[nH]c2c1 | inconclusive [falling, single point] | 
56 | COc1cccc(/C=N/Nc2nc(Nc3ccc([N+](=O)[O-])cc3)nc(N3CCCC3)n2)c1O |  | inactive: -9.4%
57 | O=c1c2cc(O)c(O)cc2oc2cc(O)c(C3OC(CO)C(O)C(O)C3O)c(O)c12 (centres undefined) | inconclusive [falling, single point] | 
58 | Nc1nc(=S)c2[nH]cnc2[nH]1 | inconclusive [falling, partial curve] | 
59 | COc1ccc(Cn2nnnc2CN(Cc2cc3cccc(C)c3[nH]c2=O)C2CCCC2)cc1 |  | inactive: -1.18%
60 | N#Cc1c(NC(=O)/C=C/c2ccco2)sc2c1CCCC2 |  | inactive: -2.1%
61 | CC(C)CC(=O)OC1C(N2CCOCC2)c2c(ccc(/C=C/C(=O)N3CCOCC3)c2O)OC1(C)C (centres undefined) |  | inactive: 3.53%
62 | CCOC(=O)c1sc(=NC(=O)c2ccc(Cl)s2)n(C)c1C |  | inactive: 2.87%
63 | Cc1c2cnn(CC(=O)Nc3c(F)c(F)cc(F)c3F)c(=O)c2c(C)n1Cc1ccccc1F |  | inactive: 21.4%
64 | NS(=O)(=O)c1ccc(NC(=S)Nc2ccc(Br)c(Cl)c2)cc1 | active: 9.53 µM | 
65 | Cc1cc(Cn2nc(C(=O)NCc3cccc(C(F)(F)F)c3)cc2-c2ccccc2)on1 |  | inactive: -15.2%
66 | Cc1cc(C)cc(NC(=O)COC(=O)c2n[nH]c3ccccc23)c1 |  | inactive: -2.44%
67 | CCN(CC)c1ccc(SS(=O)(=O)O)cc1 | active: 26.9 µM and active: 19 µM | 
68 | NC(=O)c1ccc(NC(=O)COC(=O)/C=C/c2ccc(Br)o2)cc1 | inconclusive [falling, full curve] | 
69 | Cn1cnc2c1c(=O)n(Cc1ccc(F)cc1Cl)c(=O)n2C |  | inactive: -0.561%
70 | COc1cccc(Nc2ccc(C(=O)O)cc2N)c1 |  | inactive: -24.2%
71 | COCCn1c(C)nc2oc3ccc(Br)cc3c(=O)c2c1=O | inconclusive [falling, single point] | 
72 | COc1cccc(/C=N/n2c(C3CCCCC3)n[nH]c2=S)c1O | inconclusive [activator, single point] | 
73 | NC(=S)NNC(=O)Nc1ccc(Cl)c(Cl)c1 | active: 16.9 µM | 
74 | O=C(c1ccc(Cl)cc1)[C@@H]1[C@@H]2C(=O)N(c3ccc(Cl)cc3)C(=O)[C@@H]2C2c3ccccc3C=NN21 (some centres undefined) | inconclusive [activator, single point] | 
